This is one part of the list. Sequences were assembled here from the parent chain. Inactive controls read about 0.05.
B1: TEV protease; numbered along this chain (parent)
chain: MGESLFKGPRDYNPISSSICHLTNESDGHTTSLYGIGFGPFIITNKHLFRRNNGTLVVQSLHGVFKVKDTTTLQQHLVDGRDMIIIRMPKDFPPFPQKLKFREPQREERICLVTTNFQTKSMSSMVSDTSCTFPSGDGIFWKHWIQTKDGQCGSPLVSTRDGFIVGIHSASNFTNTNNYFTSVPKNFMELLTNQEAQQWVSGWRLNADSVLWGGHKVFMVKPEEPFQPVKEATQL

Variants of: B1
Experiment: raw area under fraction-flipped curve 0-4 h after induction (AUC4h, not background-subtracted), DNA-recorder readout of cleavage of the substrate (dimensionless); higher = more cleavage of the substrate by the protease variant
Conditions: temperature: 34 °C; time window: 0-4 h after rhamnose induction
Description: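 In vivo DNA recorder in E. coli TOP10(DE3) ΔrhaA at 34 °C. Each TEVp single-site mutant (parent TEVp 0) is paired with a single-site variant of the 7-mer TEVs (canonical ENLYFQ|S). The substrate sits between flexible linkers in a Bxb1-sfGFP-TEVs-SsrA fusion, so cleavage stabilises Bxb1 and speeds flipping of a recombination array, read by NGS. The value is the raw area under the fraction-flipped curve over 0-4 h after rhamnose induction (AUC4h), with ≥20 reads per time point. It is not background-subtracted; inactive controls average about 0.047.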
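Further: Bxb1 expression induced with 0.2% (w/v) L-rhamnose at OD600 near 0.5, cultures sampled hourly, flipped fraction per protease–substrate barcode pair counted by paired-end Illumina sequencing.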

Variant	area with substrate ENLYFQA	area with substrate ENLYFQE	area with substrate ENLYFQG	area with substrate ENLYFQK	area with substrate ENLYFQM	area with substrate ENLYFQN	area with substrate ENLYFQP	area with substrate ENLYFQR	area with substrate ENLYFQS	area with substrate ENLYFQT	area with substrate ENLYFQW	area with substrate ENLYFQY	area with substrate ENLYFQC	area with substrate ENLYFQD	area with substrate ENLYFQF	area with substrate ENLYFQL	area with substrate ENLYFQQ	area with substrate ENLYFQV	area with substrate ENLYFQH	area with substrate ENLYFQI
MGESLFKGPRDYNPISSSICHLTNESDGHTTSLYGIGFGPFIITNKHLFRRNNGTLVVQSLHGVEKVKDTTTLQQHLVDGRDMIIIRMPKDFPPFPQKLKFREPQREERICLVTTNFQTKSMSSMVSDTSCTFPSGDGIFWKHWIQTKDGQCGSPLVSTRDGFIVGIHSASNFTNTNNYFTSVPKNFMELLTNQEAQQWVSGWRLNADSVLWGGHKVFMVKPEEPFQPVKEATQL [F65E]	0.0698	0.0649	0.0852	0.0585	0.0813	0.0757	0.06	0.0627	0.0846	0.0598	0.0529	0.0817								
MGESLFKGPRDYNPISSSICHLTNESDGHTTSLYGIGFGPFIITNKHLFRRNNGTLVVQSLHGVFKVKDTTTLQQHLVDGRDMIIIRMPKDFPPFPQKLKFREPQREERICLVTTNFQTKSMSSMVSDTSCTFPSGDGIPWKHWIQTKDGQCGSPLVSTRDGFIVGIHSASNFTNTNNYFTSVPKNFMELLTNQEAQQWVSGWRLNADSVLWGGHKVFMVKPEEPFQPVKEATQL [F140P]	0.0545	0.0575	0.0558	0.0566	0.0515		0.0471	0.0567	0.0623	0.0601	0.0432	0.0627	0.0577	0.0558	0.0498	0.0553	0.0548	0.0551		
MGESLFKGPRDYNPISSSICHLTNESDGHTTSLYGIGFGPFIITNKHLFRRNNGTLVVQSLHGVFKVKDTTTLQQHLVDGRDMIIIRMPKDFPPFPQKLKFREPQREERICLVTTNFQTKSMSSMVSHTSCTFPSGDGIFWKHWIQTKDGQCGSPLVSTRDGFIVGIHSASNFTNTNNYFTSVPKNFMELLTNQEAQQWVSGWRLNADSVLWGGHKVFMVKPEEPFQPVKEATQL [D128H]	0.101		0.124			0.0977		0.0778	0.122	0.0787	0.0608		0.158	0.0758	0.0641	0.0578	0.0652		0.0898	0.0621
MGESLFKGPRDYNPISSSICHLTNESDGHTTSLYGIGFGPFIITNKHLFRRNNGTLVVQSLHGVFKVKDTTTLQQHLVDGRDMIIIRMPKDFPPFPQKLKFREPQREERICLVTTNFQTKSMSSMVSDTSCTFPSGDGIFWKHWIQTKDGQCGSPLVSTRDGFIVGIHSASNFTNTNNYFGSVPKNFMELLTNQEAQQWVSGWRLNADSVLWGGHKVFMVKPEEPFQPVKEATQL [T181G]	0.0883		0.0802	0.0436	0.0703		0.0535	0.0607	0.09	0.0707	0.0538		0.104			0.0619		0.0551	0.0738	0.0521
MGESLFKGPRDYNPISSSICHLTNESDGHTTSLYGIGFGPFIITNKHLFRRFNGTLVVQSLHGVFKVKDTTTLQQHLVDGRDMIIIRMPKDFPPFPQKLKFREPQREERICLVTTNFQTKSMSSMVSDTSCTFPSGDGIFWKHWIQTKDGQCGSPLVSTRDGFIVGIHSASNFTNTNNYFTSVPKNFMELLTNQEAQQWVSGWRLNADSVLWGGHKVFMVKPEEPFQPVKEATQL [N52F]	0.0519		0.071	0.0602	0.0637	0.0608		0.0606	0.069			0.0635	0.0762	0.0711		0.0476	0.117		0.0739	0.0629
MGESLFKGPRDYNPISSSICHLTNESDGHTTSLYGIGFGPFIVTNKHLFRRNNGTLVVQSLHGVFKVKDTTTLQQHLVDGRDMIIIRMPKDFPPFPQKLKFREPQREERICLVTTNFQTKSMSSMVSDTSCTFPSGDGIFWKHWIQTKDGQCGSPLVSTRDGFIVGIHSASNFTNTNNYFTSVPKNFMELLTNQEAQQWVSGWRLNADSVLWGGHKVFMVKPEEPFQPVKEATQL [I43V]	0.0968		0.0917	0.0653	0.0793		0.0652	0.0642	0.101	0.0577		0.065					0.0635	0.0413	0.0862	
MGESLFKGPRDYNPISSSICHLTNESDGHTTSLYGIGFGPFIITNKHLFRRNNGTLVVQSLHGVFKVKDTTTLQQHLVDGRDMIIIRMPKDFPPFPQKLKFREPQREERICLVTTNFQTKSMSSMVSDTSCTFPSGDGIFWKHWIQTKDGQCGSPLVSTRDGFIVGIHSASNFTNTNNYFTSVPKNFMELLTNQENQQWVSGWRLNADSVLWGGHKVFMVKPEEPFQPVKEATQL [A196N]	0.102		0.0846			0.0732	0.0612	0.0494	0.101	0.0653	0.062	0.083	0.105	0.0685		0.0567		0.0668		
MGESLFKGPRDYNPISSSICHLTNESDGHTTSLYGIGFGPFIITNKHLFRRNNGTLVVQSLHGVFKVKDTTTLQQHLVDGRDMIIIRMPKDFPPFPQKLKFREPQREERICLVTTNFQTKSMSSMVSDTSCTFPSGDGIFWKHWIQTKDGQCYSPLVSTRDGFIVGIHSASNFTNTNNYFTSVPKNFMELLTNQEAQQWVSGWRLNADSVLWGGHKVFMVKPEEPFQPVKEATQL [G153Y]	0.0489				0.0484	0.0422	0.0287	0.0435	0.0449				0.0319			0.0538				0.0243
MGESLFKGPRDYNPISSSICHLTNESDGHTTSLYGIGFGPFIITNKHLFRRNNGTLVVQSLHIVFKVKDTTTLQQHLVDGRDMIIIRMPKDFPPFPQKLKFREPQREERICLVTTNFQTKSMSSMVSDTSCTFPSGDGIFWKHWIQTKDGQCGSPLVSTRDGFIVGIHSASNFTNTNNYFTSVPKNFMELLTNQEAQQWVSGWRLNADSVLWGGHKVFMVKPEEPFQPVKEATQL [G63I]	0.0788			0.056			0.0527	0.0625	0.0849	0.0772	0.0579		0.0867	0.0649	0.0508	0.0599		0.0551		
MGESLFKGPRDYNPISSSICHLMNESDGHTTSLYGIGFGPFIITNKHLFRRNNGTLVVQSLHGVFKVKDTTTLQQHLVDGRDMIIIRMPKDFPPFPQKLKFREPQREERICLVTTNFQTKSMSSMVSDTSCTFPSGDGIFWKHWIQTKDGQCGSPLVSTRDGFIVGIHSASNFTNTNNYFTSVPKNFMELLTNQEAQQWVSGWRLNADSVLWGGHKVFMVKPEEPFQPVKEATQL [T23M]	0.0829	0.0371	0.0973	0.059	0.0858		0.0541	0.0671	0.101	0.0639	0.0582		0.122	0.0806	0.0704	0.0496		0.0638	0.115	
MGESLFKGPRDYNPISSSICHLTNESDGHTTSLYGIGFGPFIITNKHLFRRNNGTLVVQSLHGVFKVKDTTTLQQHLVDGRDMIIIRMPKDFPPFPQKLKFREPQREERICLNTTNFQTKSMSSMVSDTSCTFPSGDGIFWKHWIQTKDGQCGSPLVSTRDGFIVGIHSASNFTNTNNYFTSVPKNFMELLTNQEAQQWVSGWRLNADSVLWGGHKVFMVKPEEPFQPVKEATQL [V113N]	0.0393	0.0913	0.0698	0.0508			0.0588	0.0532	0.0642	0.0609	0.031	0.0554		0.04				0.037	0.0551	0.0495
MGESLFKGPRDYNPISSSICHLTNESDGHTTSLYGIGFGPFIITNKHLFRRNNGTLVVQSLHGVFKVKDTTTLQQHLVDGRDMIIIRMPKDFPPFPQKLKFREPQREERICLVTTNFQTKSPSSMVSDTSCTFPSGDGIFWKHWIQTKDGQCGSPLVSTRDGFIVGIHSASNFTNTNNYFTSVPKNFMELLTNQEAQQWVSGWRLNADSVLWGGHKVFMVKPEEPFQPVKEATQL [M122P]	0.088		0.106	0.115		0.0735		0.0636	0.107	0.0715		0.0589	0.0997	0.0801	0.0711	0.0666	0.0821	0.0472	0.0749	0.0557
MGESLFKGPRDYNPISSSICHLTNESDGHTTSLYGIGFGPFIITNKHLFRRNNGTLVVQSLHGVFKVKDTTTLQQHLVDGRDMIIIRMPKDFPPFPQKLKFREPQREERICLVTTNFQTKSYSSMVSDTSCTFPSGDGIFWKHWIQTKDGQCGSPLVSTRDGFIVGIHSASNFTNTNNYFTSVPKNFMELLTNQEAQQWVSGWRLNADSVLWGGHKVFMVKPEEPFQPVKEATQL [M122Y]	0.0891		0.0753	0.0548	0.0276	0.0734		0.0545	0.104	0.0557	0.0656		0.12		0.0498	0.0635	0.063	0.0573	0.0773	0.058
MGESLFKGPRDYNPISSSICHLTNESDGHTTSLYGIGFGPFIITNKHLFRRNNGTLVVQSLHGVFKVKDTTTLQQHLVDGRDMIIIRMPKDFPPFPQKLKFREPQREERICLVTTNFQTKSMSSMVSDTSCTFPSGDGIFWKHWIQTKDGQCGSPLVSTRDGFIVGIHSASNFTNTVNYFTSVPKNFMELLTNQEAQQWVSGWRLNADSVLWGGHKVFMVKPEEPFQPVKEATQL [N177V]	0.117		0.162	0.0678	0.094	0.114			0.145	0.0569	0.101	0.0782	0.164	0.0904		0.0562		0.069	0.124	0.0545
MGESLFKGPRDYNPISSSICHLTNESDGHTTSLYGIGFGPFIITNKHLFRRNNGTLVVQSLHGVFKVKDTTTLQQHLVDGRDMIIIRMPKDFPPFPQKLKFREPQREERICLVTTNFQTKSMSSMVSDTSCTFLSGDGIFWKHWIQTKDGQCGSPLVSTRDGFIVGIHSASNFTNTNNYFTSVPKNFMELLTNQEAQQWVSGWRLNADSVLWGGHKVFMVKPEEPFQPVKEATQL [P134L]	0.059		0.0624	0.0644	0.0652	0.04			0.0787		0.0549	0.0521	0.109	0.051		0.0641	0.0487	0.0703	0.0472	0.0798
MGESLFKGPRDYNPISSSICHLTNESDGHTTSLYGIGFGPFIITNKHLFRRNNGTLVVQSLHGVFKVKDTTTLQQHLVDGRDMIIIRMPKDFPPFPQKLKFREPQREERICLVTTNFQTKSMSSMVSDTSCTFPSGDGIFWKHWIQTKDGQCGSPLVSTRDGFIVGIHSASNFTNTNIYFTSVPKNFMELLTNQEAQQWVSGWRLNADSVLWGGHKVFMVKPEEPFQPVKEATQL [N178I]	0.0996		0.0613				0.0644		0.0655	0.0511				0.0649						
MGESLFKGPRDYNPISSSICHLTNESDGHTTSLYGIGFGPFGITNKHLFRRNNGTLVVQSLHGVFKVKDTTTLQQHLVDGRDMIIIRMPKDFPPFPQKLKFREPQREERICLVTTNFQTKSMSSMVSDTSCTFPSGDGIFWKHWIQTKDGQCGSPLVSTRDGFIVGIHSASNFTNTNNYFTSVPKNFMELLTNQEAQQWVSGWRLNADSVLWGGHKVFMVKPEEPFQPVKEATQL [I42G]	0.0542		0.0631	0.059		0.0419		0.0214	0.0439	0.0442	0.0432	0.0403	0.0465			0.0372		0.0367	0.0358	0.0572
MGESLFKGPRDYNPISSSICHLTNESDHHTTSLYGIGFGPFIITNKHLFRRNNGTLVVQSLHGVFKVKDTTTLQQHLVDGRDMIIIRMPKDFPPFPQKLKFREPQREERICLVTTNFQTKSMSSMVSDTSCTFPSGDGIFWKHWIQTKDGQCGSPLVSTRDGFIVGIHSASNFTNTNNYFTSVPKNFMELLTNQEAQQWVSGWRLNADSVLWGGHKVFMVKPEEPFQPVKEATQL [G28H]	0.0799			0.0642	0.0658		0.0656	0.0541	0.0916			0.0853	0.0843	0.0627				0.0552	0.0701	0.064
